This is one part of the list.
B1: chr1:157179356:157179357:-_ENSMUSG00000026469_ENSMUST00000027741|perfect_dup|FALSE|FALSE (ssRNA)
RNA: GGGAGUUCUACAGUCCGACGAUCCAGGAUGAGACUGAGGUAGAACUCGCUGAAGGCCAGCUUAAGGUCUUUAAUGUUCCUAUGUUGGACACGCUCCUCGUGGGACAGGUGGAACACUGGCUUUCUGCGCUGUCGCAAUGUCGUCAACAGAGGAUUGAGCAUCA
B2: chr4:140556289:140556290:+_ENSMUSG00000036622_ENSMUST00000037055|mus_mus|mus_mus_mus_hu_False|8_48 (ssRNA)
RNA: GGGAGUUCUACAGUCCGACGAUCGAUGGAGCUCACCAGGCCCCCUUUUGCCGUGCAGAACCCUGUGCGGGUCACCACUGCCAGGACACGGGGUCCCACAUAGGCCCGGGCCUGCAAGAUGAGGGUCCCACAGAAGAGUGUGUGCAACAGAGGAUUGAGCAUCA
B3: chr2:153583694:153583695:+_ENSMUSG00000027479_ENSMUST00000028981|perfect_dup|motif|central (ssRNA)
RNA: GGGAGUUCUACAGUCCGACGAUCGAAAAACUUCUUGAACCACUGAACGAAUUCAAAAUUGUCCUGAAACUUUCCUUUUACGGAUUUGUCCACAGGAAUUAUUUUGUCAACACCCAUUCUCUUAAAACCUGCUUGUAGUAUUUUCAACAGAGGAUUGAGCAUCA
B4: chr11:85733470:85733471:-_ENSG00000073921_ENST00000532317|hu_mus|FALSE|FALSE (ssRNA)
RNA: GGGAGUUCUACAGUCCGACGAUCUUUUGUGAAAUCGAAUGCAACUUGUCUGUAUGAAACUGCUUUUUCAUUUAAGUAUCUACUAUACCGUCUAAUAAAUGUAGACAUAUCAUAUCCUUGCAAUCCACUUUUAUCCAAAAAAUUCAACAGAGGAUUGAGCAUCA
B5: chr4:132926270:132926271:+_ENSMUSG00000028854_ENSMUST00000030669|mus_hu|FALSE|FALSE (ssRNA)
RNA: GGGAGUUCUACAGUCCGACGAUCUGGGUUUGCAAUCUGGAACUCCAAAGUGGGGAAAGGGGGCAAGGACCCAGGAACGACCACGAAAGGAGACCAAAAGGUCUGGAACUCCGGGCCUGGGAAGGGGGAGGACGGAUGUGGGAACAACAGAGGAUUGAGCAUCA
B6: chr5:72798818:72798819:+_ENSG00000145741_ENST00000335895|hu_hu|FALSE|FALSE (ssRNA)
RNA: GGGAGUUCUACAGUCCGACGAUCGAUGCUGGGUAGCAUUUCUGUCAGCUGCUUUGUCUCAGCAUGGCCUGUAAUGGUGAAAGUGUUCGCUGCCAGAGAUGCCUGAACUUUAGGGUUGUUAAAGUGGAUCACUGUUCCUUGGUUCAACAGAGGAUUGAGCAUCA
B7: 243727048_243736245_1062_CDS_ENSG00000117020_ENST00000366539|human|control|control (ssRNA)
RNA: GGGAGUUCUACAGUCCGACGAUCACAGAAUGUCUUCAUGGUGGCUGCAUCUGUGAUCCCUUCUUUGCAAAGUCCAAAAUCUGUAAUUUUUAUGUGGCCAUCUUUGUCCAGCAUUAGAUUCUCCAACUUGAGAUCACGGUACACCAACAGAGGAUUGAGCAUCA
B8: chr3:145257603:145257604:+_ENSMUSG00000074182_ENSMUST00000098534|mus_hu|motif|central (ssRNA)
RNA: GGGAGUUCUACAGUCCGACGAUCAUCAAUGUAAGGUUUUAGGAUUUCAUUAAUAGUUUUAUCAUCUGGUACUCUUUUUUCGGUGUACUCAGCUUGACUUUGAGGAAACUGGAGCUUCACAUGCCAACAAAACUGUUGUUUUUUCAACAGAGGAUUGAGCAUCA
B9: chr2:48782750:48782751:-_ENSMUSG00000026761_ENSMUST00000141441|mus_mus|motif|central (ssRNA)
RNA: GGGAGUUCUACAGUCCGACGAUCUUUUUCUGAUGAGCAAAAAUAUCAAAUUCAUCCAGUAUGAAGAUCACUGGGCAACUGCGGGUCCGGUCACCUUUUUGCAAAGCUUCCAGAAGAAAUGAAAGGUUUUCAGCAAAGCUUCCACAACAGAGGAUUGAGCAUCA
B10: chr7:149068622:149068623:-_ENSMUSG00000025139_ENSMUST00000001950|mus_hu|mus_mus_mus_hu_False|38_88 (ssRNA)
RNA: GGGAGUUCUACAGUCCGACGAUCGUGAGGCCUCUGAGUGUGGCUUGUGCUCUGCAGUGGGUUAGAGUUGUUAAUAUCACGGAACAUACCAUCUAGAGAGGUUCUGCCCCGCCUGACACCUUCAUUCCCAAUGGAGAAGAAAUCCAACAGAGGAUUGAGCAUCA
B11: chr10:7368923:7368924:-_ENSMUSG00000019795_ENSMUST00000163085|mus_mus|FALSE|FALSE (ssRNA)
RNA: GGGAGUUCUACAGUCCGACGAUCCAUGUAAGGGUUAGAUUUUGCAUAGUGGGAACGGUCUGUAGCCAGCAUCACUUCAAAUACUUUAUCUGUCUUGAUGAUUCCAUUCUUGCGGAGGUUGUGGAUUAGCUCCGAGUGGCUGGCCAACAGAGGAUUGAGCAUCA
B12: chr4:108167797:108167798:+_ENSMUSG00000034610_ENSMUST00000043368|mus_hu|FALSE|FALSE (ssRNA)
RNA: GGGAGUUCUACAGUCCGACGAUCCUCCACAAUUUCCUGACGGACUCUGAGGUCAUCAUCUGUUAUUCCAUGUUCUUUUGCUAAUUCAAUGACUGCAACACUUAAAGCAGCCAAGUGGGCAGGGGAAGGAGGUGGCAGAGAACGCAACAGAGGAUUGAGCAUCA
B13: chr11:100581416:100581417:-_ENSMUSG00000019173_ENSMUST00000107364|mus_hu|FALSE|FALSE (ssRNA)
RNA: GGGAGUUCUACAGUCCGACGAUCCCCGCCAUUGCCCGUCCAGCUGUAGUGGUCCAGAGAGCGUGCGGGUGGGGACUGGUGCUAUGCAAAGAGGCACUUAGUGGGGAGGGGGACCUCCAAGGCGGCUCCGGGGCGGCGGCGUUACAACAGAGGAUUGAGCAUCA
B14: 102342291_102344465_4559_CDS_ENSMUSG00000043940_ENSMUST00000053177|mouse|control|control (ssRNA)
RNA: GGGAGUUCUACAGUCCGACGAUCGGAAAUGCCUAACUGCUUCGCAAUGGCUUUGCUGUCUAACUUGUUGUAGACUUUCCGGAUUCUUGCCACUGUUAGGGAGGACACGGACAGAGCGUAGAGUCCAAAGGACACCUUUUCCUCCAACAGAGGAUUGAGCAUCA
B15: chr1:36558744:36558745:+_ENSG00000116863_ENST00000373178|hu_hu|motif|central (ssRNA)
RNA: GGGAGUUCUACAGUCCGACGAUCAAUGGUGUCUGUGUCCCCACCAAGUGAGAUGGAAUAAAUGAGAGUCCUUUGGAGGCGGUUGAAGGCAGAAGGGAUCUCAGGGUCUGGCUCCAUGCAGCGUAGGAAGCAGUAGAUGGCGGUCAACAGAGGAUUGAGCAUCA
B16: chr3:176767854:176767855:-_ENSG00000177565_ENST00000430069|hu_hu|hu_hu_hu_mus_False|18_18 (ssRNA)
RNA: GGGAGUUCUACAGUCCGACGAUCGACAUCCUUGUUACUGGGCACGUCCUGCCCUCCUUCCCGUAUGCAGUGUCUAAGCACGAGCUGCGUAGGGCCACUCGUGCUGUUCUCACUGAGAUUCCAUAUUCUUGCCGUGGAGUCUCCCAACAGAGGAUUGAGCAUCA
B17: chr18:35731670:35731671:+_ENSMUSG00000037236_ENSMUST00000166793|perfect_dup|FALSE|FALSE (ssRNA)
RNA: GGGAGUUCUACAGUCCGACGAUCUGACCCUGUGAAUCCCUACCGAGAGAUGACUGCUGGAAUGACUUGGACAUUGUAGAACUAUCUCUUGUCUAUUUUAUAGAUCAAAAAAAAAAAAAAAAGUUUUAAAAGAUGGCCAAAAAGCAACAGAGGAUUGAGCAUCA
B18: chr2:217001844:217001845:+_ENSG00000079246_ENST00000392132|hu_hu|hu_hu_hu_mus_False|68_108 (ssRNA)
RNA: GGGAGUUCUACAGUCCGACGAUCACCGACUUGAGGAUUAGAUCUUUUGUCAUAAGCAUAUCGGACGAUGGCCACCAUGUUUAACUCAUCCAAAGCAUGAACGAGAGAGGAAAGGGCAACAGCUGCCGCCUCAUCAUCCUUUGCCAACAGAGGAUUGAGCAUCA
B19: chr5:17772112:17772113:-_ENSMUSG00000057614_ENSMUST00000074694|mus_hu|motif|central (ssRNA)
RNA: GGGAGUUCUACAGUCCGACGAUCGUAUAUCCUCAGAAAUCUGAAAUUUUAGUUUUUCAAACCAAAUCUAACGUGGAAUCGGAUGUAAAAUUAAAUUAUUUUAUUUUCUUAAAGUAGGAAAAAUCAAAAUGCAUACAAUGUUUACAACAGAGGAUUGAGCAUCA
B20: chr14:90871172:90871173:+_ENSG00000198668_ENST00000553542|hu_hu|motif|central (ssRNA)
RNA: GGGAGUUCUACAGUCCGACGAUCAAUACAUGCAGAUUUUGUGUGUGUGGACAGAAGGUACUUUUGACAUUCAGUUUUGCGGUAUAGAAACAGAAUGAAUAAAUGAACUUUUUUCUUUUUUCUUUUUUUUGCAAGAGGUAAGUACAACAGAGGAUUGAGCAUCA
B21: chr13:6597965:6597966:-_ENSMUSG00000021196_ENSMUST00000144053|mus_mus|FALSE|FALSE (ssRNA)
RNA: GGGAGUUCUACAGUCCGACGAUCUCAUUCUCUCAUAUUACCACUGGCUCAAAUCCUCCAAUGAUCAGAAGGGCAUUGAUACUAUGGGAAUGCAUCUGCUCUGCGAUCUUCUCCAAGUACUUUCCAGGUAGGGUGCGUUUUGUCCAACAGAGGAUUGAGCAUCA
B22: chr4:148551591:148551592:-_ENSMUSG00000063077_ENSMUST00000060537|mus_hu|mus_mus_mus_hu_False|1_78 (ssRNA)
RNA: GGGAGUUCUACAGUCCGACGAUCACCUGACAAAAUUAAAUAUCCCUGUAAAUUAGACAAGAAGCAGCAGGCAACAAAGUCUUUGCUUUGGAAUAUGUGCCAGGAAAAGUCAUCUUGUUUUUAGAUCUCAAGAGACACAACCAUCAACAGAGGAUUGAGCAUCA

The binders below were run against T1, UNK ZnF1-3 (human, UniProt Q9C0B0 31-174) (assay: nsRBNS (natural sequence RNA bind-n-seq); RBNS binding buffer (assumed for nsRBNS): 25 mM Tris pH 7.5, 150 mM KCl, 3 mM MgCl2, 0.01% Triton X-100, 500 ug/ml BSA, 20 U/ml SUPERase-In, 4 C; UNK is unkempt and MSI1 is Musashi-1; names of the RNAs are library labels; protein concentration not given here; high values mean tight binding).
T1 sequence: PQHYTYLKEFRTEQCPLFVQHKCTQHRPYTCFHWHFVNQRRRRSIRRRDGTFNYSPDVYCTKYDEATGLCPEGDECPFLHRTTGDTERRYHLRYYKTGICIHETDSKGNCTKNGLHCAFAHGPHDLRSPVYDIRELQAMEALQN

Binder	binding signal [enrichment R]
B1	0.819
B2	0.977
B3	0.711
B4	0.389
B5	1.62
B6	0.447
B7	0.817
B8	0.475
B9	1.29
B10	0.752
B11	0.897
B12	1.31
B13	1.31
B14	0.721
B15	1.56
B16	0.349
B17	2.84
B18	2.01
B19	1.76
B20	1.08
B21	0.746
B22	1.61
